In publication PMC9747930:
No constants are given. Whether binding was seen depends on the method and setting. In cells and extracts the contact can be indirect. Some results given as binding are weak or reduced against the parent protein; the word gives no strength. For some assays here: Sequences can lack the tags named with a protein.

The chains behind the UniProt entries cited, without tags or fusion partners.
UniProt Q8K1M6: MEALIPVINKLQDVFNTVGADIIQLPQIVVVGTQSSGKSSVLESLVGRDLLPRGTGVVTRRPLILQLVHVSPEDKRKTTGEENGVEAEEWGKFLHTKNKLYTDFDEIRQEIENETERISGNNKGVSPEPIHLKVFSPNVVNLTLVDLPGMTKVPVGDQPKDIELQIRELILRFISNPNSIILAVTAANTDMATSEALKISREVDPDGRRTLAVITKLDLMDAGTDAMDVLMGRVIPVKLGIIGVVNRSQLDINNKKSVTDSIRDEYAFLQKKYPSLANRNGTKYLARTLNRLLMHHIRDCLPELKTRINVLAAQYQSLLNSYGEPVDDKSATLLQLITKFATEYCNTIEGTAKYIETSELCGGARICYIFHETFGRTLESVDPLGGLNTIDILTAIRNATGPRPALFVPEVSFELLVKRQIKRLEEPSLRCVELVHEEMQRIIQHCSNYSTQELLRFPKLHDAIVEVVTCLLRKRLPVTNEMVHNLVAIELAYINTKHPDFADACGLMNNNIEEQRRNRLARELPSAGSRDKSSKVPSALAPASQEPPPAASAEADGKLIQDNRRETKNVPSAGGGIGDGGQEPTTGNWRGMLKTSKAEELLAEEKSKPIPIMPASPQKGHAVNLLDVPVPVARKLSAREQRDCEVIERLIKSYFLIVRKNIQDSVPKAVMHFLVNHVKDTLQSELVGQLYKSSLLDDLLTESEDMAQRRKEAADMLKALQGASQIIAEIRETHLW
UniProt Q8BZQ7: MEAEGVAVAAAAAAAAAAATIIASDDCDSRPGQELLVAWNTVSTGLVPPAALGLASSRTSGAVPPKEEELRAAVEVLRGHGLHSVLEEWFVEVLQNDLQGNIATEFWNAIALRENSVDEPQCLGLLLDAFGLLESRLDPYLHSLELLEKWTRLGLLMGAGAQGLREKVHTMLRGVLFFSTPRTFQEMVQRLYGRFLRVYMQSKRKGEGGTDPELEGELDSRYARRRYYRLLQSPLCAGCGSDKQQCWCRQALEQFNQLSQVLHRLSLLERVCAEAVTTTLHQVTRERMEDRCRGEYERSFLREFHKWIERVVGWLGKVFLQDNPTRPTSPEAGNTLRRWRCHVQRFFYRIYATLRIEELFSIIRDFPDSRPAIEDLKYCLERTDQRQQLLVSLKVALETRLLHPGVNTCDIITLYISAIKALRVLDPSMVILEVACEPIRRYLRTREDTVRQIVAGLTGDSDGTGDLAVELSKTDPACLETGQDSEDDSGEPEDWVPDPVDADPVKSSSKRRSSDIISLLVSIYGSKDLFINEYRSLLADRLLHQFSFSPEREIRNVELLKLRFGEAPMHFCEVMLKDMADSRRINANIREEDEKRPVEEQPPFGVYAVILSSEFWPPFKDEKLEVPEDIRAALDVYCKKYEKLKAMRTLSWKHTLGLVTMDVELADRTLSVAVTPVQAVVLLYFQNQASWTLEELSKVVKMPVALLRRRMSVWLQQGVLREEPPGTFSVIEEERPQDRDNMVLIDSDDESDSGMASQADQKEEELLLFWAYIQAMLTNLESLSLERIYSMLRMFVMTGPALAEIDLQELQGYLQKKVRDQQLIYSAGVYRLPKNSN
UniProt Q9CPX9: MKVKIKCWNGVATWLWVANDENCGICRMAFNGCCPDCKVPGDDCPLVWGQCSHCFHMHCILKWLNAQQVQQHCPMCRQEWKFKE

Tests used:
[1] = biological target: Dynamin-related protein 1 (DRP1) (mouse (endogenous in oocytes)) (UniProt Q8K1M6); experiment: co-IP; lysate of 1000 mouse oocytes in IP buffer (20 mM Tris-HCl, 10 mM EDTA, 1 mM EGTA, 150 mM NaCl, 0.05% Triton X-100, 0.05% NP-40); antibody on protein A&G agarose beads, 4 °C overnight; endogenous proteins, immunoblot
[2] = biological target: T1, eGFP-CENP-F^ΔC/N (964-1983) (mouse) (UniProt Q155P7); experiment: co-IP; HEK-293 cells co-transfected for 48 h with eGFP-Cenp-f fragment and cMyc-Drp1; lysates incubated with anti-eGFP; immunoblot with anti-eGFP and anti-cMyc
T1 sequence: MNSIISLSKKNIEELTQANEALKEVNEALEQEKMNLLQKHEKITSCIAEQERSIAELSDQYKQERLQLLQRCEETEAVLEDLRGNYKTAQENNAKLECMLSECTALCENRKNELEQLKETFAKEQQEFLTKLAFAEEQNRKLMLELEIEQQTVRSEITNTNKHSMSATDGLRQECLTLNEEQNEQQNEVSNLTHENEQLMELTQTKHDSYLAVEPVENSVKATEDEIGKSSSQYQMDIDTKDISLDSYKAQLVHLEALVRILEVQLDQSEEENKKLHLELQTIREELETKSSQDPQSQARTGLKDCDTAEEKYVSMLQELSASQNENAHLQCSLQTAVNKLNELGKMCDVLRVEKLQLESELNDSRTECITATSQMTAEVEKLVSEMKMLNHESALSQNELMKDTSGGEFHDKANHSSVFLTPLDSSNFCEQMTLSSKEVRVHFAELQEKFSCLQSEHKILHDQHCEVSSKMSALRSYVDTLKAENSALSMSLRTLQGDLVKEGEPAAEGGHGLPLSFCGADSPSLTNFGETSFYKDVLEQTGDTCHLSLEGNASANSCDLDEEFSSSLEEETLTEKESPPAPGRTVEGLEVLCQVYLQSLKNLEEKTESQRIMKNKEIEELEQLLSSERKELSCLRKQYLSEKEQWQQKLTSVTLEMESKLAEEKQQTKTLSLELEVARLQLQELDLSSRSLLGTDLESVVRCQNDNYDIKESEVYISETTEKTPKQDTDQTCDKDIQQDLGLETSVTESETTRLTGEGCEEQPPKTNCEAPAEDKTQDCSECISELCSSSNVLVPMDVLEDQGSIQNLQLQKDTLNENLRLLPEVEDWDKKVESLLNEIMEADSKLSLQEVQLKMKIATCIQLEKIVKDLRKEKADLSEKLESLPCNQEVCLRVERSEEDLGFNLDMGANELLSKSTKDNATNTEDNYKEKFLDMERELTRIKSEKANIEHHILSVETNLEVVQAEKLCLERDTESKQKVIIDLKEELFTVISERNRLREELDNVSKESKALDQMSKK

[3] = biological target: Centromere protein F (CENP-F) (mouse (endogenous in oocytes)) (UniProt Q155P7); experiment: co-IP; lysate of 1000 mouse oocytes in IP buffer (20 mM Tris-HCl, 10 mM EDTA, 1 mM EGTA, 150 mM NaCl, 0.05% Triton X-100, 0.05% NP-40); antibody on protein A&G agarose beads, 4 °C overnight; endogenous proteins, immunoblot

| binding [1] | Substance | also measured |
| --- | --- | --- |
| binds | APC2 (from UniProt Q8BZQ7 1-837) |  |
| binds | Centromere protein F (CENP-F) (from UniProt Q155P7 1-2997) |  |
|  | cMyc-DRP1 (from UniProt Q8K1M6 1-736) | binding [2]: binds |
| no binding | APC11 (from UniProt Q9CPX9 1-84) |  |
|  | Dynamin-related protein 1 (DRP1) (from UniProt Q8K1M6 1-736) | binding [3]: binds |
